# Earlier results as cited in PubChem BioAssay AID1259409 (Chemical Carcinogenesis Research Information System (CCRIS), 2018).
# Some entries of the source have several records that differ or are many. This list holds those alone. There may be further records. Values that stand side by side do not match, cause unknown; they may come from other doses, times, organisms or constructs than stated.
# System: rodent chemically induced tumor inhibition, incidence and multiplicity
# Experiment: CCRIS tumor inhibitor studies
# Text: The CCRIS database contains chemical records with carcinogenicity, mutagenicity, tumor promotion, and tumor inhibition test results. It was developed by the National Cancer Institute (NCI). Data are derived from studies cited in primary journals, current awareness tools, NCI reports, and other sources. Test results have been reviewed by experts in carcinogenesis and mutagenesis.
# CCRIS provides historical information from the years 1985 - 2011. It is no longer updated.
# This is an archive assay for CCRIS tumor inhibitor studies.
structure (smiles),measurement,setting,value
O=C1O[C@H]([C@@H](O)CO)C(O)=C1O,"tumour outcome (control, treated, inhibition, significance)","Carcinogen: 7,12-DIMETHYLBENZ[A]ANTHRACENE, 57-97-6, Dose [Inhibitor]: 0.2% IN 0.25 ML OF 20:80 WATER-ACETONE DAILY FOR 20 D BEGINNING 1 D POST CARCINOGEN TREATMENT (STUDY DURATION: 21 WK), Route [Inhibitor]: DERMAL, Species: MOUSE, Strain/Sex: ICR/FEMALE, Target Tissue: Type of Lesion: SKIN: PAPILLOMA, Dose [Carcinogen]: 0.125 MG IN 0.25 ML ACETONE ONCE, Promoter: CROTON OIL, 8001-28-3","63%, 71%, -13%, not significant and 89%, 70%, 21%, not significant"
Cn1c(=O)c2c(ncn2C)n(C)c1=O,"tumour outcome (control, treated, inhibition, significance)","Carcinogen: 7,12-DIMETHYLBENZ[A]ANTHRACENE, 57-97-6, Dose [Inhibitor]: 0, 500 MG/L IN DRINKING WATER OF 84 DAY OLD RATS WHICH WERE OVARIECTOMIZED AT 72 D OF AGE (STUDY DURATION: 130 D), Route [Inhibitor]: ORAL, Species: RAT, Strain/Sex: SPRAGUE-DAWLEY/FEMALE, Target Tissue: Type of Lesion: MAMMARY GLAND: CARCINOMA, Dose [Carcinogen]: 10 MG/ML IN CORN OIL ONCE TO 53 DAY OLD RATS, Promoter: 17BETA-ESTRADIOL, 50-28-2","63%, 60%, 5%, not significant and 48%, 43%, 10%, not significant and 12%, 10%, 17%, not significant"
same,"tumour outcome (control, treated, inhibition, significance)","Carcinogen: 7,12-DIMETHYLBENZ[A]ANTHRACENE, 57-97-6, Dose [Inhibitor]: 0, 500 MG/L IN DRINKING WATER OF 84 DAY OLD RATS WHICH WERE OVARIECTOMIZED AT 72 D OF AGE (STUDY DURATION: 130 D), Route [Inhibitor]: ORAL, Species: RAT, Strain/Sex: SPRAGUE-DAWLEY/FEMALE, Target Tissue: Type of Lesion: MAMMARY GLAND: FIBROADENOMA, Dose [Carcinogen]: 10 MG/ML IN CORN OIL ONCE TO 53 DAY OLD RATS, Promoter: 17BETA-ESTRADIOL, 50-28-2","54%, 14%, 74%, p<0.001 and 81%, 57%, 30%, p<0.05 and 10%, 2%, 80%, not significant"
Cc1cc(C(C)(C)C)c(O)c(C(C)(C)C)c1,"tumour outcome (control, treated, inhibition, significance)","Carcinogen: 7,12-DIMETHYLBENZ(A)ANTHRACENE, 57-97-6, Dose [Inhibitor]: 0.3% BHT IN DIET FROM WEANING ONWARD (STUDY DURATION: 6 MO AFTER CARCINOGEN ADMINISTRATION), Route [Inhibitor]: ORAL, Species: RAT, Strain/Sex: SPRAGUE-DAWLEY/FEMALE, Target Tissue: Type of Lesion: MAMMARY GLAND: ADENOCARCINOMA, Dose [Carcinogen]: 10 MG/RAT IN 1 ML STRIPPED CORN OIL, SINGLE DOSE ON D 50 FOLLOWING 24 HR FASTING PERIOD, Promoter: NONE USED","40%, 26%, 35%, not calculated and 70%, 33%, 53%, not calculated"
C=C1/C(=C\C=C2/CCC[C@]3(C)[C@@H]([C@H](C)CCCC(C)(C)O)CC[C@@H]23)C[C@@H](O)C[C@@H]1O,"tumour outcome (control, treated, inhibition, significance)","Carcinogen: 7,12-DIMETHYLBENZ[A]ANTHRACENE, 57-97-6, Dose [Inhibitor]: 0.5 NMOL 2/WK STARTING 1 WK AFTER CARCINOGEN TREATMENT AND CONTINUING FOR 9 WK (STUDY DURATION: 10 WK), Route [Inhibitor]: DERMAL, Species: MOUSE, Strain/Sex: CD-1/FEMALE, Target Tissue: Type of Lesion: SKIN: PAPILLOMA, Dose [Carcinogen]: 20 NMOL ONCE, Promoter: 12-O-TETRADECANOYLPHORBOL-13-ACETATE, 16561-29-8","47%, 20%, 57%, not significant and 77%, 34%, 56%, p<0.05"
CCCOC(=O)c1cc(O)c(O)c(O)c1,"tumour outcome (control, treated, inhibition, significance)","Carcinogen: 7,12-DIMETHYLBENZ(A)ANTHRACENE, 57-97-6, Dose [Inhibitor]: 0.3% IN DIET FROM WEANING ONWARD (STUDY DURATION: 6 MO AFTER CARCINOGEN ADMINISTRATION), Route [Inhibitor]: ORAL, Species: RAT, Strain/Sex: SPRAGUE-DAWLEY/FEMALE, Target Tissue: Type of Lesion: MAMMARY GLAND: TUMOR, Dose [Carcinogen]: 10 MG/RAT IN 1 ML STRIPPED CORN OIL, SINGLE DOSE ON D 50 FOLLOWING 24 HR FASTING PERIOD, Promoter: NONE USED","100%, 73%, 27%, not calculated and 70%, 33%, 53%, not calculated and 40%, 10%, 75%, not calculated"
O=[Se](O)O,"tumour outcome (control, treated, inhibition, significance)","Carcinogen: 7,12-DIMETHYLBENZ[A]ANTHRACENE, 57-97-6, Dose [Inhibitor]: 5 PPM IN 5% CORN OIL DIET DAILY STARTING 29 D BEFORE CARCINOGEN TREATMENT AND CONTINUING FOR DURATION OF STUDY (STUDY DU, Route [Inhibitor]: ORAL, Species: RAT, Strain/Sex: SPRAGUE-DAWLEY/FEMALE, Target Tissue: Type of Lesion: MAMMARY GLAND: ADENOCARCINOMA, Dose [Carcinogen]: 10 MG IN CORN OIL ONCE AT 50 D OF AGE, Promoter: NONE USED","21/30 (70%), 7/30 (23%), 67%, p<0.001 and 68%, 25%, 63%, p<0.01"
same,"tumour outcome (control, treated, inhibition, significance)","Carcinogen: 7,12-DIMETHYLBENZ[A]ANTHRACENE, 57-97-6, Dose [Inhibitor]: 5 PPM IN 25% CORN OIL DIET DAILY STARTING 29 D BEFORE CARCINOGEN TREATMENT AND CONTINUING FOR DURATION OF STUDY (STUDY D, Route [Inhibitor]: ORAL, Species: RAT, Strain/Sex: SPRAGUE-DAWLEY/FEMALE, Target Tissue: Type of Lesion: MAMMARY GLAND: ADENOCARCINOMA, Dose [Carcinogen]: 10 MG IN CORN OIL ONCE AT 50 D OF AGE, Promoter: NONE USED","30/30 (100%), 16/29 (55%), 45%, p<0.001 and 96%, 48%, 50%, p<0.01"
COc1cc(/C=C/C(=O)CC(=O)/C=C/c2ccc(O)c(OC)c2)ccc1O,"tumour outcome (control, treated, inhibition, significance)","Carcinogen: N-NITROSOMETHYLBENZYLAMINE [937-40-6], Dose [Inhibitor]: 0, 500 PPM FOR 7 WK BEGINNING 1 WK PRIOR TO FIRST CARCINOGEN DOSE (STUDY DURATION: 40 WK), Route [Inhibitor]: SUBCUTANEOUS, Species: RAT, Strain/Sex: F344/MALE, Target Tissue: Type of Lesion: ESOPHAGUS: SQUAMOUS CELL PAPILLOMA, Dose [Carcinogen]: 1 MG/KG 3X/WK FOR 5 WK (STUDY DURATION: 40 WK), Promoter: NONE","62.5%, 39.3%, 37.1%, not significant and 4.17%, 0%, 100%, not significant"
same,"tumour outcome (control, treated, inhibition, significance)","Carcinogen: N-NITROSOMETHYLBENZYLAMINE [937-40-6], Dose [Inhibitor]: 0, 500 PPM FOR 33 WK BEGINNING 1 WK POST LAST CARCINOGEN DOSE (STUDY DURATION: 40 WK), Route [Inhibitor]: SUBCUTANEOUS, Species: RAT, Strain/Sex: F344/MALE, Target Tissue: Type of Lesion: ESOPHAGUS: SQUAMOUS CELL PAPILLOMA, Dose [Carcinogen]: 1 MG/KG 3X/WK FOR 5 WK (STUDY DURATION: 40 WK), Promoter: NONE","62.5%, 33.3%, 46.7%, p<0.01 and 4.17%, 0%, 100%, not significant"
[O]=[W](=[O])([OH])[OH],"tumour outcome (control, treated, inhibition, significance)","Carcinogen: N-METHYL-N-NITROSOUREA, 684-93-5, Dose [Inhibitor]: 150 PPM IN DRINKING WATER DAILY STARTING 15 D PRIOR TO CARCINOGEN TREATMENT AND CONTINUING THROUGH END OF THE STUDY (STU, Route [Inhibitor]: ORAL, Species: RAT, Strain/Sex: SPRAGUE-DAWLEY/FEMALE, Target Tissue: Type of Lesion: MAMMARY GLAND: PAPILLARY CARCINOMA, Dose [Carcinogen]: 5 MG/100 G BW ONCE, Promoter: NONE USED","50%, 79%, -58%, p<0.05 and 91%, 96%, -5%, not significant"
CC1=C(/C=C/C(C)=C/C=C/C(C)=C/C(=O)Nc2ccc(O)cc2)C(C)(C)CCC1,"tumour outcome (control, treated, inhibition, significance)","Carcinogen: 7,12-DIMETHYLBENZ[A]ANTHRACENE, 57-97-6, Dose [Inhibitor]: 782 MG/KG DIET DAILY STARTING 7 D AFTER CARCINOGEN ADMINISTRATION AND CONTINUING THROUGH THE END OF THE STUDY (STUDY DUR, Route [Inhibitor]: ORAL, Species: RAT, Strain/Sex: SPRAGUE-DAWLEY/FEMALE, Target Tissue: Type of Lesion: MAMMARY GLAND: TUMOR, Dose [Carcinogen]: 20 MG ONCE, Promoter: NONE USED","91%, 85%, 7%, p<0.05 and 26%, 6%, 77%, p<0.01"
same,"tumour outcome (control, treated, inhibition, significance)","Carcinogen: N-METHYL-N-NITROSOUREA, 684-93-5, Dose [Inhibitor]: 782 MG/KG DIET DAILY STARTING 7 D AFTER CARCINOGEN ADMINISTRATION AND CONTINUING THROUGH THE END OF THE STUDY (STUDY DUR, Route [Inhibitor]: ORAL, Species: RAT, Strain/Sex: SPRAGUE-DAWLEY/FEMALE, Target Tissue: Type of Lesion: MAMMARY GLAND: TUMOR, Dose [Carcinogen]: 50 MG/KG BW ONCE, Promoter: NONE USED","100%, 92%, 8%, p<0.05 and 18%, 2%, 89%, p<0.01"
c1ccc2c(Cc3c[nH]c4ccccc34)c[nH]c2c1,"tumour outcome (control, treated, inhibition, significance)","Carcinogen: 7,12-DIMETHYLBENZ[A]ANTHRACENE, 57-97-6, Dose [Inhibitor]: 0.05 MMOL IN 1 ML DIMETHYL SULFOXIDE ONCE 20 HR PRIOR TO CARCINOGEN ADMINISTRATION FOLLOWED BY A 14 WK OBSERVATION PERIO, Route [Inhibitor]: GAVAGE, Species: RAT, Strain/Sex: SPRAGUE-DAWLEY/FEMALE, Target Tissue: Type of Lesion: MAMMARY GLAND: TUMOR, Dose [Carcinogen]: 12 MG IN 1 ML OLIVE OIL ONCE, Promoter: NONE USED","91%, 27%, 70%, p<0.01 and 60%, 36%, 40%, not significant"
